# From PubChem BioAssay AID1347073 (National Center for Advancing Translational Sciences (NCATS), 2019)
# Screen size: about 45,000 compounds; about 200 (0.44%) were called active. Roughly 7% stayed inconclusive and do not appear here. The call rests on the fitted dose curve; in most records, active means well fitted activation curve with a large enough effect; inconclusive means small, poorly fitted or top-dose-only effect; inactive means no such curve, though single readings can be large or run the other way. The list shows a part of the results.
# Assay: qHTS of TDP-43 Inhibitors: NCGC Sytravon Library Screen; further: 0% is about no effect; nearly all actives have a fitted effect of over 55% in size
# Details: yeast TDP-43 toxicity rescue, BacTiter-Glo growth, 24 h; series mostly up to 46.1 µM; growth rescue (activation): at the top concentration
# Summary of the method: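 TDP-43-expressing yeast, pregrown in raffinose, seeded at OD600 0.02 in galactose medium with compound for 24 hr at 30 deg C. Growth read by BacTiter-Glo luminescence, so rescue of toxicity appears as activation.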
row,SMILES,growth rescue (activation)
1,COc1ccc(C2C(C#N)=C(C)NC(C)=C2C(=O)OC(C)C)c(OC)c1 (centres undefined),inactive: -1.55%
2,CCOc1ccc(-c2c(C(=O)N/N=C/c3ccccc3)nnn2-c2nonc2N)cc1,inactive: -3.51%
3,C=CCn1c(SCC(=O)c2ccc(F)cc2)nnc1-c1ccc2c(c1)OCO2,inactive: 27.7%
4,Cc1ccc(C(=O)NC(=S)Nc2ccc(NC(=O)c3cccc(Cl)c3)cc2)cc1,inactive: 19.9%
5,Cc1nc2cc(F)ccc2n1C1CCN(C(=O)c2ccc(F)cc2F)CC1,inactive: 6.72%
6,CC1=C(C(=O)NCc2ccccc2)C(c2cccs2)NC(=S)N1 (centres undefined),inactive: 1.82%
7,Cc1sc2nc(SCC(=O)Nc3ccc(Cl)c(C(=O)O)c3)[nH]c(=O)c2c1C,inactive: 4.59%
8,CCC(C(=O)OCC(=O)N1C(C)CCCC1C)c1ccccc1 (centres undefined),inactive: 4.11%
9,CCC(C)SCC(=O)Nc1ccc(S(=O)(=O)N2CCOCC2)cc1OC (centres undefined),inactive: 24.1%
10,CC(C)=CCN1CCN(Cc2c(C)nn(C)c2Cl)CC1CCO (centres undefined),inactive: 8.45%
11,O=C(NCCNC(=O)c1cnccn1)c1cccc(Cl)c1,inactive: 6.71%
12,CCNC(=O)C1(C)CCN(C(=O)c2ccccc2OC)C1 (centres undefined),inactive: -11.6%
13,Cc1nn(CC(=O)NCCc2ccccc2Cl)c(=O)c2nn(-c3ccccc3)c(C)c12,inactive: 0.115%
14,COc1ccccc1Nc1ccc(S(=O)(=O)N2CCCCC2)cc1[N+](=O)[O-],inactive: -9.41%
15,O=C(NC1CCCCC1)c1cc(S(=O)(=O)N2CCOCC2)ccc1Cl,inactive: -21.9%
16,O=C(COC(=O)C1C2CC3OC(=O)C1C3C2)Nc1cccc(Cl)c1 (centres undefined),inactive: 5.75%
17,CNc1cc(-c2cccc(OC)c2F)nc2ccnn12,inactive: 13.2%
18,COc1ccc(CN(C(=O)CO/N=C/c2ccccc2)c2ccccc2C(=O)O)cc1,inactive: 0.289%
19,O=C(CCS(=O)(=O)Cc1ccccc1)Nc1nncs1,inactive: -17.8%
20,COC(=O)c1ccc(CNC(=O)COC(=O)/C=C/c2ccc(O)c(OC)c2)cc1,inactive: 28.2%
21,CCOC(=O)C(=O)N(C)c1c(CC)nc2c(OCCC3CCCCC3)cccn12,inactive: -9.18%
22,CCN(CC(=O)NCc1ccc(F)cc1)C(=O)c1ccc(COc2ccccc2)cc1,inactive: 9.93%

row,SMILES,growth rescue (activation)
1,COc1ccccc1/C=N/NC(=O)c1ccc(=O)n(C)c1,inactive: -7.23%
2,CC(=O)N(/N=C/c1ccc(C)cc1)c1nc(CCl)cs1,inactive: -16.7%
3,O=C(Oc1ccc(Br)cc1)c1n[nH]c(=O)c2ccccc12,inactive: 23.5%
4,O=[N+]([O-])c1cc(Cl)ccc1NCCc1ccccn1,inactive: 23.4%
5,COc1ccc(NC(=O)c2cc(-c3cc(OC)c(OC)c(OC)c3)nc3ccccc23)c(OC)c1,inactive: -17.4%
6,COC(=O)C1=C(N)Oc2cc(C)n(Cc3cccnc3)c(=O)c2C1c1ccccc1OC (centres undefined),inactive: 7.51%
7,COc1ccc(-c2cc(C(=O)NCCN3CCOCC3)no2)cc1OC,inactive: 6.79%
8,CN(C)c1nc(N(C)C)nc(N2CC(CCl)OC2=N)n1 (centres undefined),inactive: 3.17%
9,Cc1noc(C)c1CN1C(=O)c2cccc([N+](=O)[O-])c2C1=O,inactive: -7.27%
10,Cc1cccc2cc(-c3nc4ccc(C(=O)O)cc4[nH]3)c(=O)oc12,inactive: -8.08%
11,O=C(CCNS(=O)(=O)c1cccc2nsnc12)NCc1ccccc1Cl,inactive: 5.91%
12,CCOC(=O)c1[nH]c2ccc(OC)cc2c1NC(C)=O,inactive: -37.2%
13,Cc1ccc(S(=O)(=O)N(C)C)cc1-n1c(SCC(=O)Nc2ccc(F)cc2Cl)nc2ccccc2c1=O,inactive: 2.36%
14,N#C/C(=C\c1ccccc1[N+](=O)[O-])C(=O)NCc1ccccc1,inactive: 1.49%
15,O=C(COC(=O)c1n[nH]c2ccccc12)NCCc1ccccc1,inactive: 0.995%
16,O=C(c1ccco1)N1CCC(c2nc3c(nnn3Cc3c(Cl)cccc3Cl)c(=O)[nH]2)CC1,inactive: 15.6%
17,CCOc1cc(/C=C2\SC(=N)N(c3nonc3N)C2=O)ccc1OCC(N)=O,inactive: 15.9%
18,Cc1ccc(NC(=O)C2CCCN(c3ncccn3)C2)cc1C (centres undefined),inactive: 13.1%
19,CCOC(=O)COc1ccc2c(=O)c(-c3ccccc3)coc2c1,inactive: -4.93%
20,CCCCCCCCCCSc1n[nH]c(N)n1,inactive: -90.1%
21,CC(C)Cn1c(S(=O)(=O)O)nc2ccccc21,inactive: 12.2%
22,CCOC(=O)c1c(C)[nH]c(C(=O)NCCN2CCOCC2)c1C,inactive: 3.27%

row,SMILES,growth rescue (activation)
1,Cc1ccc(C(=O)c2ccc(N3CCN(C)CC3)c([N+](=O)[O-])c2)cc1,inactive: 7.22%
2,O=C(CC(C(=O)O)P(=O)(c1ccccc1)c1ccccc1)c1ccccc1 (centres undefined),inactive: 0.146%
3,CCOC(=O)C1CCCN(C(=O)c2ccc(C)c([N+](=O)[O-])c2)C1 (centres undefined),inactive: 5.54%
4,CC(C)OP(=O)(OC(C)C)C(Nc1ccccc1)c1cccc([N+](=O)[O-])c1 (centres undefined),inactive: 5.37%
5,C/C(=N\N1C(C)CCCC1C)c1ccccc1O (centres undefined),inactive: 3.45%
6,Cc1cc(NO)c(C(C)C)cc1N=O,inactive: 10%
7,O=C(COC(=O)c1cc[n+]([O-])cc1)Nc1cccc(Cl)c1Cl,inactive: -6.99%
8,CCCC(=O)Nc1ccc(NC(=S)NC(=O)c2ccccc2[N+](=O)[O-])cc1,inactive: 23.5%
9,Cc1cc(/C=C2\C(=N)N3N=C(C(C)C)SC3=NC2=O)c(C)n1-c1ccccc1,inactive: -5.03%
10,N#CCC(=O)Nc1ccc(C(=O)NNC(=S)NC2CCCCC2)cc1,inactive: -8.06%
11,COc1cc(CCC(=O)Nc2cccc(C(F)(F)F)c2)cc(OC)c1OC,inactive: -18.6%
12,CC1=C/C(=C(/c2cc(C)c(O)c(Br)c2)c2ccccc2S(=O)(=O)O)C=C(Br)C1=O,inactive: -61.8%
13,O=C(Nc1ccccc1)N(O)c1ccc(Cl)cc1,inactive: 22.7%
14,CCCNS(=O)(=O)c1ccc(OCC(=O)NCC2CCCO2)cc1 (centres undefined),inactive: -9.33%
15,COC(=O)C(C(=O)OC)C(c1ccccc1)C(C(=O)c1ccccc1)[N+](=O)[O-] (centres undefined),inactive: 9.93%
16,CC(=O)c1c(C)[nH]c(C(=O)Nc2cccc3ccccc23)c1C,inactive: 2.34%
17,CS(=O)(=O)Cc1ccc(C(=O)N2CCCC2c2cccs2)cc1 (centres undefined),inactive: -2.14%
18,Cc1ccc(S(=O)(=O)NCC(=O)NNC(=O)c2ccc(Br)cc2)cc1C,inactive: -1.43%
19,C/C(=N\N1CCN(c2ccc(Cl)cc2)CC1)c1cccs1,inactive: 13.6%
20,COc1ccc(/C=C/C(=O)OCC(=O)Nc2ccc(Cl)cn2)cc1,inactive: -0.908%
21,CCOc1ccccc1/C=N/Nc1ccnc(=O)[nH]1,inactive: 4.25%
22,Cc1ccc(OCc2cc(C(=O)N(C)CCn3ccnc3C)no2)cc1C,inactive: 7.03%

row,SMILES,growth rescue (activation)
1,O=C(NCc1ccc2c(c1)OCO2)c1ccc(Br)o1,inactive: 25.9%
2,CCS(=O)(=O)c1ncc(Cl)c(C(=O)Nc2ccccc2OC)n1,inactive: -3.51%
3,CCOc1ccccc1N(CC(=O)NCc1ccccc1)C(=O)CCC(=O)Nc1cc(C)ccn1,inactive: 9.27%
4,Cc1cc(C(=O)OCC(=O)Nc2ccccc2)c(C)o1,inactive: -2.56%
5,COc1cc(CNC(=O)C2CC2)ccc1OCc1ccccc1,inactive: -4.56%
6,COc1ccccc1N1CCN(Cc2cc3c(cc2O)OCO3)CC1,inactive: 0.565%
7,O=C(CSc1ncnc2c1nnn2-c1ccc(F)cc1)NCc1ccco1,inactive: -13.6%
8,Cc1ccccc1Nc1ccc(S(=O)(=O)N2CCOCC2)cc1[N+](=O)[O-],inactive: 6.04%
9,Cc1c(F)cccc1NS(=O)(=O)c1ccc2c(c1)c(=O)n(C)c(=O)n2C,inactive: 0.529%
10,CNC(=S)Nc1cc(C)ccc1OC(F)F,inactive: 4.72%
11,COc1ccc(NC(=O)CN2CCC3(O)CCCCC3C2c2cc(OC)ccc2OC)cc1 (centres undefined),inactive: 6.59%
12,O=C(CSc1nncn1-c1ccccc1F)NC1CC1,inactive: 5.1%
13,CCOc1ccccc1N1CN(C2CCCCC2)CNC1=S,inactive: -6.4%
14,O=C(COc1ccc(S(=O)(=O)Nc2ccccc2)cc1)NCc1ccncc1,inactive: 10.9%
15,Clc1cc(Br)ccc1OCCCNCc1ccccc1,inactive: -6.52%
16,O=C(COC(=O)/C=C/c1ccccc1)NC1CCCCCC1,inactive: 24%
17,N#C/C(=C/Nc1ccccc1)c1ccsc1,inactive: 1.19%
18,O=C(COC(=O)Cc1ccsc1)NC(c1ccccc1)c1ccccc1,inactive: 17%
19,O=C(Cn1nnc(-c2ccccc2Cl)n1)N1CCCCC1,inactive: -5.84%
20,CN1CC(=O)N(CC(=O)Nc2ccc(OCc3ccccc3)cc2)C1=O,inactive: 8.7%
21,CCOC(=O)Cc1csc(SCc2nc3sc4c(c3c(=O)[nH]2)CCC4)n1,inactive: 23.2%
22,COCCNc1ccnc2c(Cl)cccc12,inactive: 0.11%

row,SMILES,growth rescue (activation)
1,CCNC(=O)C1(C)CCCN(C(=O)c2csc3ccccc23)C1 (centres undefined),inactive: -1.91%
2,CCC(Oc1ccccc1)C(=O)Nc1ccccc1C(=O)N1CCOCC1 (centres undefined),inactive: 8.94%
3,Cc1ccc(N2C(=O)CC(Sc3ncccc3C(=O)O)C2=O)cc1 (centres undefined),inactive: -4.25%
4,CC(C)CCNC(=O)NC(=O)COC(=O)C1CCN(S(=O)(=O)c2ccccc2F)CC1,inactive: 4.64%
5,Cc1ccc(CNC(=O)C2CCC(=O)N(Cc3ccc(Cl)cc3)C2)cc1F (centres undefined),inactive: 14.2%
6,CC1(C(=O)Nc2cccc3cccnc23)CCN1C(=O)CCC1CCCC1 (centres undefined),inactive: 23.9%
7,COc1ccc(NS(=O)(=O)c2ccc(NC(=O)c3ccc(CN4CCOCC4)cc3)cc2)cc1,inactive: 4.18%
8,O=C(O)CN1C(=O)/C(=C\c2cn(-c3ccccc3)nc2-c2ccccc2)SC1=S,inactive: 0.651%
9,COc1ccc(NC(=O)CCSCCc2ccccn2)cc1OC,inactive: 1.46%
10,Cc1cc(C(=O)Nc2cc(S(C)(=O)=O)ccc2Cl)c(C)o1,inactive: -1.27%
11,CCCCN(CC)CCNC(=O)Cn1cnc2sc(C)c(S(=O)(=O)N3CCC(C)CC3)c2c1=O,inactive: -1.5%
12,Cc1cccc(S(=O)(=O)NC2CCCCCCC2)c1,inactive: -10.9%
13,CCc1ccc(N2CC(C(=O)Nc3ccc4c(c3)OCCO4)CC2=O)cc1 (centres undefined),inactive: 1.33%
14,Cc1ccc(C)c(OCc2nc3ccc(S(=O)(=O)Nc4c(C)n(C)n(-c5ccccc5)c4=O)cc3[nH]2)c1,inactive: 20.4%
15,C=CCN1C(=O)c2ccccc2NC1c1ccc(Br)s1 (centres undefined),inactive: 33.3%
16,CC1(C)C=C2C(=NN(c3ccccc3)C(N)=C2C#N)CO1,inactive: -1.86%
17,Cc1ccc(C)c(OCC(=O)Nc2c[nH]c(=O)[nH]c2=O)c1,inactive: 16.1%
18,Cc1ccc(S(=O)(=O)N2CCC[C@H]2C(=O)OCc2nc3ccccc3s2)cc1,inactive: -5.53%
19,COc1cccc(CC(NC(C)=O)C(=O)NC2CCN(c3c4c(nc5ncnn35)CCC4)CC2)c1 (centres undefined),inactive: 23.4%
20,CN(CCc1cn[nH]c1)C(=O)C1CCC(=O)N(CC2CCCCC2)C1 (centres undefined),inactive: 14.3%
21,OC(c1ccccc1)c1ncc(-c2ccc(Cl)cc2)[nH]1 (centres undefined),inactive: 12.3%
